Measured values reported in the CheMixHub viscosity set.
± gives the uncertainty stated by the source. For part of its entries the source gives two or more results. They are shown here; other results are not. There may be further records. Values that stand side by side are repeats (runs, samples, wells, individuals or studies). Brackets tell where a record comes from. Letters count within one entry.

Key:
[1] = xn = mol fraction of the nth substance listed; settings: 298.15 K; 101.33 kPa; x1 = 0.7

Which results are given for Cc1ccccc1C?
viscosity (313.15 K, 101 kPa): 0.626 ± 0.006 mPa·s [study A] and 0.625 ± 0.013 mPa·s [study B] and 0.6262 ± 0.0083 mPa·s [study C] and 0.6261 ± 0.017 mPa·s [study D] and 0.5892 ± 0.009 mPa·s [study E]; viscosity (323.15 K, 101 kPa): 0.559 ± 0.006 mPa·s [study A] and 0.5586 ± 0.0074 mPa·s [study B] and 0.5584 ± 0.015 mPa·s [study C] and 0.5177 ± 0.0082 mPa·s [study D]

With CCCCCCCCCCCC as the molecule, how does the viscosity (308.15 K, 101.33 kPa) read?
Its viscosity is 1.106 ± 0.014 mPa·s [study A] and 1.113 ± 0.027 mPa·s [study B] and 1.122 ± 0.016 mPa·s [study C] and 1.111 ± 0.022 mPa·s [study D].

For NC(N)=O + C[N+](C)(C)CCO.[Cl-], which viscosity [1] is on record?
Its viscosity is 750 ± 99 mPa·s [study A] and 99.47 mPa·s [study B].

For c1ccc(Oc2ccccc2)cc1, which viscosity (298.15 K, 101 kPa) is on record?
Its viscosity is 0.538 ± 0.014 mPa·s [study A] and 3.66 ± 0.097 mPa·s [study B].

Which results are given for OCCOCCOCCO?
viscosity (293.15 K, 101 kPa): 46.7 ± 1 mPa·s [study A] and 41.1 ± 0.27 mPa·s [study B] and 41.01 ± 0.27 mPa·s [study C] and 41.01 ± 0.4 mPa·s [study D] and 41.01 ± 0.27 mPa·s [study E]; viscosity (303.15 K, 101 kPa): 29.2 ± 0.7 mPa·s [study A] and 29.24 ± 0.19 mPa·s [study B] and 29.24 ± 0.19 mPa·s [study C] and 29.24 ± 0.19 mPa·s [study D] and 29.24 ± 0.3 mPa·s [study E] and 29.24 ± 0.19 mPa·s [study F] and 29.18 ± 0.23 mPa·s [study G]

Which viscosity (303.15 K, 101 kPa) does the source give for CCCCCCCCCCO here?
The viscosity was 8.843 ± 1.8 mPa·s [study A] and 9.552 ± 0.7 mPa·s [study B] and 9.066 ± 0.085 mPa·s [study C] and 9.715 ± 0.19 mPa·s [study D] and 9.066 ± 0.049 mPa·s [study E].

And the viscosity (303.15 K, 101.33 kPa)?
The viscosity was 9.652 ± 1 mPa·s [study A] and 8.835 ± 0.048 mPa·s [study B] and 8.835 ± 0.058 mPa·s [study C] and 8.835 ± 0.087 mPa·s [study D] and 8.843 ± 0.089 mPa·s [study E].
